Data on 89 molecules can be found in PubChem BioAssay AID463173 (ICCB-Longwood Screening Facility, Harvard Medical School, 2010).

The campaign covered roughly 52,000 compounds. About 4,300 (8.3%) were called active. Cut-off read from the data, not from the text of the source: active = survival mostly below about 52% (no sharp cut-off); inactive = mostly above about 56%. This is one part of the list.

The test system of this test is DeltatarO mutant. The experiment in a line: growth inhibition of S. aureus wild type versus tarO mutant, primary screen, teichoic acid synthesis inhibitors, RN4220, OD600 (AID 463173). Particulars: OD600, 18 h, active compounds read low, screened at 18.75 µg/mL (by protocol).
On to `CC(=O)Nc1ccc(NC(=O)c2nc(S(=O)(=O)Cc3ccc(F)cc3)ncc2Cl)cc1`, for which the survival was active: 32%.
The same measure for `COc1cccc(CNC(=O)c2cnc3c(-c4ccc(F)cc4)c(C)nn3c2C)c1`: inactive: 124%; for `CCN(C(=O)c1cn(-c2cccc(OC)c2)c(=O)c2ccccc12)c1ccccc1C`: inactive: 62%; for `c1ccc(-c2nc(-c3cccnc3)no2)cc1`: inactive: 98%.
The same measure for `Cc1ccc(C)c(NC(=O)CSc2nccn2-c2cccc(C)c2C)c1`: inactive: 74%; for `COc1ccc(C(=O)Nc2ccccc2-c2nc3ccccc3s2)cc1OC`: active: 7%.
The same measure for `CC1CCCN(C(=O)CN2CCN(C(=O)c3ccco3)CC2)C1` (centres undefined): inactive: 85%; for `Cc1ccc(OCCSc2nc(-c3ccccc3C)nc3cc(=O)[nH]n23)cc1Cl`: inactive: 106%.
Take `COc1ccccc1N1CCN(c2ncnc3c2c(-c2ccccc2)cn3-c2cccc(Cl)c2)CC1`: the survival was inactive: 94%.
The same measure for `CCc1nn(C(CC)C(=O)NCc2ccc(OC)c(OC)c2)c(=O)c2cc3oc(C)cc3n12` (centres undefined): inactive: 85%; for `Cc1nn(-c2nc(-c3ccccc3)cc(C(F)(F)F)n2)c(C)c1Cl`: active: 5%; for `CC(C)Oc1ccc(NC(=O)C2COc3ccccc3O2)cc1` (centres undefined): inactive: 103%.
The same measure for `c1ccc2c(c1)ncn2CCn1cnc2ccccc21`: inactive: 100%; for `CCCCNC(=O)c1cccc(NC(=O)c2nsc3ccccc23)c1`: inactive: 80%; for `O=C(c1cc2ccccc2oc1=O)N1CCCCCC1`: inactive: 91%.
The same measure for `COc1cccc(OC)c1C(=O)NCCc1sc(-c2cccc(F)c2)nc1C`: inactive: 69%; for `CCOc1ccc2c(c1)c(=O)c(C(=O)c1ccc3c(c1)OCO3)cn2Cc1ccc(F)cc1`: inactive: 98%.
Take `Cc1ccc(NC(=O)CSc2nc(=O)cc(N)n2-c2ccccc2)cc1`: the survival was inactive: 87%.
The same measure for `CC1CCN(C(=O)CN(CCc2ccccc2)S(C)(=O)=O)CC1`: inactive: 71%; for `CCOC(=O)N1CCc2c(sc3c2C(=O)NC(c2ccc(N(C)C)cc2)N3)C1` (centres undefined): inactive: 55%.
The same measure for `Cc1ccc2nc(NC(=O)CSc3[nH]c(=O)ncc3C)sc2c1`: inactive: 102%.
Consider `CCCCOc1ccc(C2c3c(oc4ccc(C)cc4c3=O)C(=O)N2CCCN(C)C)cc1OCC` (centres undefined), for which the survival is inactive: 88%.
Take `CC(=O)NCCNC(=O)CCCn1c(=O)[nH]c2ccsc2c1=O`: the survival is inactive: 83%.
The same measure for `COc1ccc(NC(=O)CN2CCC(c3nc4ccc(Cl)cc4[nH]3)CC2)c(OC)c1`: inactive: 69%.
Regarding `Cc1ccc(-n2c(SCc3ccccc3F)nc3[nH]ncc3c2=O)cc1Cl`, the survival is inactive: 91%.
Turning to `O=C(Cn1nnc(-c2cccs2)n1)N1c2ccccc2CCc2ccccc21`, the survival was inactive: 85%.
The same measure for `CCc1cccc(NC(=O)Cn2c(C(=O)OC)cc3sc(Cl)cc32)c1`: inactive: 69%.
The same measure for `CCN(CC)CCNC(=O)C1CCN(C(=O)c2cnn(-c3ccccc3)c2-n2cccc2)CC1`: inactive: 92%; for `O=C(CN1C2=NCCN2c2ccccc21)c1ccc(O)cc1`: inactive: 99%; for `CCCCN(CCCNC(=O)c1cc(Nc2cccc(SC)c2)nc2ccccc12)Cc1ccccc1`: inactive: 83%.
The same measure for `Cc1ccc(NC(=O)c2cc(S(=O)(=O)N3CCC4(CC3)OCCO4)ccc2F)cc1Cl`: inactive: 66%.
`COC(=O)c1c(NC(C)=O)c2c3c(sc2n1Cc1cc(C)ccc1C)CCCC3`: the survival was inactive: 89%.
The same measure for `CN(C)S(=O)(=O)N(CC(=O)NCCSCc1c(F)cccc1Cl)c1ccccc1`: inactive: 70%; for `CCOC(=O)c1ccccc1NC(=O)c1sc2nc3n(c(=O)c2c1C)CCCCC3`: active: 37%.
For `CN(C)c1ncnc2c1ncn2C1OC(CO)C(O)C1O` (centres undefined), the survival was inactive: 75%.
As to `Cc1cccc(-n2c(C)cc(C(=O)C(=O)Nc3ccccc3F)c2C)c1C`, the survival was inactive: 90%.
The same measure for `CCCN1CCN(CCCNC(=O)c2cc3c(=O)n(CC)c4ccccc4c3s2)CC1`: inactive: 93%; for `Cc1ccc(S(=O)(=O)N2CCC(N3CCN(Cc4ccccc4)C(=O)C3=O)CC2)cc1C`: inactive: 76%; for `CCN(CC)S(=O)(=O)c1cccc(C(=O)Nc2ccccc2C(=O)Nc2ccc(Cl)cc2)c1`: inactive: 83%.
The same measure for `Cc1ccc(C)c(NS(=O)(=O)c2cc3c(cc2C)n(C)c(=O)c(=O)n3C)c1`: inactive: 101%; for `Cc1ccc(-n2c(/C=C/c3c(C)n(C)c4ccccc34)nc3ccccc3c2=O)cc1`: inactive: 70%; for `CCOC(=O)c1c(NC(=O)Cc2coc3cc(C)cc(C)c23)sc2c1CCC2`: inactive: 99%.
The same measure for `COCCN(CCOC)S(=O)(=O)c1ccc(C(=O)Nc2sc3c(c2C(=O)OC)CCN(C)C3)cc1`: inactive: 83%; for `CC(=O)c1ccc(NC(=O)c2cc(C)nn2-c2ccccc2)cc1`: inactive: 80%.
As for `CCOc1ccc2ncc3c(-c4ccc(C)cc4)nn(-c4cccc(F)c4)c3c2c1`, the survival is inactive: 53%.
The same measure for `CCOc1ccc(OCC)c(NC(=O)c2cc(S(=O)(=O)N3CCc4ccccc43)cn2C)c1`: inactive: 72%; for `Cc1ccc(S(=O)(=O)NCC(c2ccco2)N2CCOCC2)cc1` (centres undefined): inactive: 94%.
The same measure for `O=S(=O)(c1cccc(Cl)c1)c1nnn2c1nc(NCc1ccc3c(c1)OCO3)c1sccc12`: inactive: 46%; for `Cc1ccc(S(=O)(=O)CC(=O)Nc2nc3c(C)cc(C)cc3s2)cc1`: inactive: 96%.
The same measure for `Cc1cccc(C(=O)Nc2nnc(S(=O)(=O)N(C)Cc3ccccc3)s2)c1`: active: 23%; for `COc1ccc(C(=O)c2oc3ccccc3c2NC(=O)c2cc(=O)c3ccc(C)cc3o2)cc1Cl`: active: 44%.
Take `COc1ccc(-c2noc(CNC(=O)c3ccccc3Br)n2)cc1`: the survival is inactive: 51%.
The same measure for `CCOc1ccc(-c2cccc(NS(=O)(=O)c3ccc(F)cc3F)c2)nn1`: inactive: 77%; for `CCn1c(SCC(=O)OC2CCCCC2)nnc1-c1ccc(OC)cc1`: inactive: 100%.
The same measure for `COc1cccc(NC(=O)c2cccc3c(=O)c4c([nH]c23)CCCC4)c1`: inactive: 57%; for `CCCOc1ccc(C2c3c(-c4ccccc4O)n[nH]c3C(=O)N2CCc2ccccc2)cc1OCC` (centres undefined): inactive: 53%; for `Cc1ccc2oc(=O)c3cc(C(=O)NCCCOC(C)C)sc3c2c1`: inactive: 92%.
The same measure for `CCOC(=O)CSc1nc(-c2ccc(OCC)cc2)cc(C(F)(F)F)c1C#N`: inactive: 67%.
On to `CCN1C(=C(C#N)C#N)C=Cc2cc(C)ccc21`, for which the survival is inactive: 70%.
The same measure for `CCc1nnc(NC(=O)c2cc(=O)c3cc(C)ccc3o2)s1`: inactive: 79%.
The same measure for `COc1ccccc1CNC(=O)C(=O)NCC(c1cccs1)S(=O)(=O)c1ccccc1` (centres undefined): inactive: 123%; for `CC(=O)c1ccc(N2CCN(S(=O)(=O)c3cc4[nH]c(=O)c(=O)[nH]c4cc3C)CC2)cc1`: inactive: 93%; for `Cc1ccc(C)c(N2CCN(C(=O)Cn3cnc4onc(-c5ccc(F)cc5)c4c3=O)CC2)c1`: inactive: 83%.
The same measure for `O=C(CCCCn1c(=O)c2ccccc2n(Cc2cccc(F)c2)c1=O)NCCc1ccccc1`: inactive: 94%; for `Cc1ccc(C)c(NC(=O)CN2C(=O)CCc3cc(S(=O)(=O)N4CCCCC4)ccc32)c1`: inactive: 49%; for `CC(=O)N1CCC(N(Cc2ccc(C)o2)C(=O)Nc2cccc(C(F)(F)F)c2)CC1`: inactive: 91%.
Regarding `Cc1ccc2c(c1)-c1nc(-c3ccc4c(c3)NC(=O)CO4)cc(-c3ccccc3)c1CO2`, the survival was inactive: 95%.
The same measure for `COc1ccc(NC(=O)Nc2cc(-c3cn4cccnc4n3)ccc2C)cc1`: inactive: 86%; for `O=C(NC1CCN(Cc2ccccc2)CC1)c1ccc(Cn2c(=O)c3ccccc3n(Cc3ccc(Cl)cc3)c2=O)cc1`: inactive: 83%.
The same measure for `CC(=O)N1CCc2c(sc3c2c(=O)n(-c2ccccc2)c(=O)n3CC(=O)c2ccccc2)C1`: inactive: 95%; for `CC(=O)N1CCc2cc(S(=O)(=O)NC(Cc3ccccc3)C(=O)NCc3ccccc3)ccc21` (centres undefined): inactive: 79%; for `CC(=O)Nc1ccc(NC(=O)c2ccc3c(c2)N(Cc2cccc(Cl)c2)C(=O)c2ccccc2S3=O)cc1` (centres undefined): inactive: 93%.
The same measure for `Cc1cccc(C(=O)Nc2cc3c(cc2C)n(C)c(=O)n3C)c1`: inactive: 68%.
For the molecule `CCC(=O)N1CCc2cc(Br)cc(S(=O)(=O)NCCc3cccc(C)c3)c21`, the survival was inactive: 102%.
The same measure for `CCC(=O)NCC1(c2ccccc2)CCCC1`: inactive: 103%; for `O=C(c1ccccc1)N1CCN(S(=O)(=O)c2ccccc2)CC1`: inactive: 68%.
In the case of `O=C(Nc1sc2c(c1C(=O)NCc1ccco1)CCCC2)c1cc(=O)c2cc(Cl)ccc2o1`, the survival was active: 38%.
The same measure for `Cc1cc(C)c2nc(C)cc(Nc3cccc(C(=O)O)c3)c2c1`: inactive: 70%; for `CCOc1cc(C(=O)Nc2cc3c(cc2N2CCCC2)n(C)c(=O)c(=O)n3C)cc(OCC)c1OCC`: inactive: 74%; for `Cc1nnc(N2CCN(C(=O)NCCC(C)C)CC2)c2nn(-c3ccc(Cl)cc3)c(C)c12`: inactive: 94%.
The same measure for `CCc1ccc(S(=O)(=O)Nc2cccc(-c3ccc(N4CCCCC4)nn3)c2)s1`: inactive: 84%; for `O=C1C(c2ccc(F)cc2)N(CCc2ccc(Cl)cc2)C(=O)CN1C1CCCCC1` (centres undefined): inactive: 84%; for `COc1ccc(NC(=O)C2CCCN(S(=O)(=O)c3c(C)[nH]c(=O)[nH]c3=O)C2)cc1OC` (centres undefined): inactive: 138%.
The same measure for `CCN1CCN(c2csc3ccc(Br)cc3c2=O)CC1`: inactive: 78%; for `CCn1c(=O)c2cc(C(=O)NCc3cc(OC)ccc3OC)sc2c2ccccc21`: active: 54%.
With `Cc1ccc(NC(=O)C2CCCN(c3ncnc4c3nc3n4CCCCC3)C2)c(Br)c1` (centres undefined), the survival is inactive: 87%.
The same measure for `CCCCCn1cnc2c1c(=O)[nH]c(=O)n2C`: inactive: 95%; for `O=C(CSc1ncnc2c1cnn2-c1ccccc1)c1ccccc1`: inactive: 78%.
The same measure for `COc1ccc(NC(=O)c2oc3ccccc3c2NC(=O)c2cc(=O)c3cc(Cl)ccc3o2)cc1`: inactive: 54%.
